In PubChem BioAssay AID624417 (National Center for Advancing Translational Sciences (NCATS), 2012):
Among all 410,000 compounds or so, about 6,400 (1.6%) were called active. The shares of active, inactive and inconclusive entries below differ from those in the screen. The call rests on the fitted dose curve; in most records, active means well fitted inhibition curve with a large enough effect; inconclusive means small, poorly fitted or top-dose-only effect; inactive means no such curve, though single readings can be large or run the other way. No potency is given beside an inconclusive call; the fits are too rough.

Target: Glucagon-like peptide 1 receptor (Homo sapiens) (UniProt P43220)
Experiment: qHTS of GLP-1 Receptor Inverse Agonists (Inhibition Mode); further: nearly all actives have a fitted effect of over 55% in size
Conditions: HEK293 GLP-1R CRE-luciferase, luminescence, 24 h, GLP-1R form is constitutively active; series mostly up to 38.3 µM
Procedure, shortened: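 Cells are plated, allowed 12 hours at 37 deg C, then treated with compounds for 24 hr before luciferase detection reagent is added and luminescence is read after 12 min at room temperature. The HEK293 line carries constitutively active GLP-1R with a cAMP-responsive reporter.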
Potency means the concentration at half of the fitted maximal effect; tags describe the fitted curve by direction and shape.

UniProt P43220, sequence (P43220 whole entry, looked up): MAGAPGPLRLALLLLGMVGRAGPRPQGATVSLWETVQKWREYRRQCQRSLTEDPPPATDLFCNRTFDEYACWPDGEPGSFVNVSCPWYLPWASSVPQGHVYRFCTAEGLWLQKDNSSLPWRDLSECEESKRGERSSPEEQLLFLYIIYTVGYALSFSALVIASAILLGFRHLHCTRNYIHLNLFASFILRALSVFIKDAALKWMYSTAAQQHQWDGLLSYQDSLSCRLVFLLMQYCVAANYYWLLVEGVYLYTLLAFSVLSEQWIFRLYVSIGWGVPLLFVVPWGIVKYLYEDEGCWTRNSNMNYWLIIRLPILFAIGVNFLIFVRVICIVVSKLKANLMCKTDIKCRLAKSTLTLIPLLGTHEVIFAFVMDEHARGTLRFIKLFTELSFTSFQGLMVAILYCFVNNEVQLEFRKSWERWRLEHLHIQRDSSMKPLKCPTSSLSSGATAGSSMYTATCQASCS

SMILES | Potency
CN(CCCn1c(=S)[nH]c2ncccc2c1=O)Cc1ccccc1 | inactive
Oc1c(CN2CCN(c3ccc(F)cc3)CC2)cc(Cl)c2cccnc12 | active: 2.51 µM
COc1ccc(C(=O)NC(=S)N2CCN(c3ccccc3OC)CC2)cc1 | inconclusive [inhibitor, partial curve, poor fit]
O=c1[nH]c(NCCCO)nc2c1C1(CCCC1)Cc1ccccc1-2 | inconclusive [inhibitor, single point]
Cc1nn2c(C)c(C(=O)NCc3ccco3)cnc2c1-c1ccccc1 | inactive
CC(C)(C)c1ccc(OCC(=O)Nc2cccc(S(=O)(=O)NC3=NCCCCC3)c2)cc1 | inconclusive [inhibitor, partial curve, poor fit]
COc1cccc(-n2ccnc2SCC(=O)Nc2nccs2)c1 | inactive
O=C(CN1CCCc2ccccc21)NCc1ccccc1Cl | inconclusive [inhibitor, partial curve, poor fit]
COc1cc(/C=C2/CCC/C(=C\c3cc(O)c(OC)c(Cl)c3)C2=O)cc(Cl)c1O | inconclusive [inhibitor, partial curve]
CCN(CC)CCCn1c(C)cc2c(c1=O)C(c1ccccc1)C(C#N)=C(N)O2 (stereo not given) | inactive
COc1ccc(/C=C2\SC(=S)N(CCC(=O)N(CCO)Cc3ccccc3)C2=O)cc1OC | inconclusive [inhibitor, single point]
CC(NC(=O)Cn1ccsc1=N)C12CC3CC(CC(C3)C1)C2 (stereo not given) | inconclusive [inhibitor, partial curve, poor fit]
CC12CCC(C(=O)N(CCCCN3CCN(Cc4ccccc4)CC3)C1=O)C2(C)C (stereo not given) | inconclusive [inhibitor, partial curve]
OC(c1ccc(-c2ccccc2)cc1)c1ncc(-c2ccc(C(F)(F)F)cc2)[nH]1 (stereo not given) | inconclusive [inhibitor, partial curve, poor fit]
CN1CCCC(OC(=O)c2ccc3c(c2)OCCO3)C1 (stereo not given) | inconclusive [inhibitor, partial curve, poor fit]
COc1ccc(-n2nc(C(=O)N3CCCC(C)C3)c3c4ccccc4n(C)c3c2=O)cc1Cl (stereo not given) | inactive
COc1cc(/C=C2\SC(=S)N(CCC(=O)Nc3cccc(O)c3)C2=O)cc(OC)c1OC | inconclusive [inhibitor, single point]
Cn1c(N2CCN(C(=O)Nc3ccc(C(F)(F)F)cc3)CC2)nc2ccccc21 | inconclusive [inhibitor, full curve, poor fit]
COc1cc2ncnc(NCc3ccccc3C)c2cc1OC | inactive
CCn1c(NC(=O)/C=C/c2ccc(F)cc2)nc2ccccc21 | inconclusive [inhibitor, single point]
COc1ncnc2c1ncn2CCCNCC(c1ccccc1)c1ccccc1 | inactive
COc1ccc(/C=C/CN2CCN(Cc3ccccc3)C(CCO)C2)cc1 (stereo not given) | inconclusive [inhibitor, partial curve, poor fit]

SMILES | Potency
Cc1c(C(=O)OCC(=O)NC(C)c2ccccc2)oc2ccccc12 (stereo not given) | inconclusive [inhibitor, single point]
CN(C)c1ccc(C(=S)N2CCCCC2)cc1Br | inconclusive [inhibitor, single point]
Cc1ccc(C(=O)OCC(=O)c2c[nH]c3ccccc23)cc1S(=O)(=O)N1CCOCC1 | inconclusive [inhibitor, single point]
Cc1noc(C)c1S(=O)(=O)Nc1ccc2c(c1)C(=O)N([C@@H](C)CO)C[C@@H](C)[C@@H](CN(C)CC1CCCCC1)OCCCC[C@@H](C)O2 | inconclusive [inhibitor, single point]
CCOCCCNC(=S)NCCCNc1nc2c(C)c(C)ccc2cc1C#N | inconclusive [inhibitor, partial curve, poor fit]
CCOC(=O)C1CCN(CC(C)(C)NS(=O)(=O)c2ccccc2)CC1 | inconclusive [inhibitor, single point]
CC(C)[C@H](NC(=O)c1ccccc1F)C(=O)Nc1cccc(S(=O)(=O)N2CCOCC2)c1 | inactive
CC(C)N1CCC1(C)C(=O)Nc1cccc2ccccc12 (stereo not given) | inconclusive [inhibitor, single point]
C=CCn1c(SCC(=O)Nc2ccc3c(c2)OCO3)nnc1-c1ccccc1 | inactive
CCOc1ccccc1C(=O)OCC(=O)Nc1cccc(S(=O)(=O)N2CCCC2)c1 | inconclusive [inhibitor, partial curve, poor fit]
CCCc1ncc(C(O)c2cccc(OC)c2OC)n1C (stereo not given) | inactive
CCC(CC)NC(=O)CO/N=C/c1ccc(Cl)cc1Cl | inconclusive [inhibitor, single point]
COc1ccc(S(=O)(=O)Nc2ccc(S(=O)(=O)Nc3ccc(F)cc3)cc2)cc1C | inconclusive [inhibitor, single point]
CCOC(=O)c1ccc(CN2CCCC(C)(C(=O)NCCOC)C2)cc1 (stereo not given) | inactive
Cc1ccc(N2CCN(C(=O)c3cnc(N4CCCCC4)c4ccccc34)CC2)c(C)c1 | inconclusive [inhibitor, partial curve]
O=C(COc1ccc(Cl)cc1)Nc1cccc(S(=O)(=O)NC2=NCCCCC2)c1 | inactive
COc1ccc(CN(C)CC(=O)Nc2cc(OC)c([N+](=O)[O-])cc2C)c(OC)c1 | inconclusive [inhibitor, single point]
NC(=S)Nc1ccc(Cl)c(Cl)c1 | inconclusive [inhibitor, single point]
O=C(NC1CCN(CCc2c[nH]c3ccccc23)CC1)c1ccccc1 | inconclusive [inhibitor, partial curve, poor fit]
O=C(NCCc1ccccc1Cl)c1sc2ncccc2c1-n1cccc1 | inconclusive [inhibitor, single point]
COc1ccccc1NC(=O)CCSc1nnc(-c2ccc(O)cc2)o1 | inconclusive [inhibitor, single point]
COc1cccc(-c2nnc(NC(=O)c3cccs3)s2)c1 | inactive

SMILES | Potency
COc1ccccc1CN1CCC(n2nccc2NC(=O)CCOc2ccccc2)CC1 | inconclusive [inhibitor, partial curve, poor fit]
CSc1ccc(CN(C)C(=O)COc2ccc(C(=O)c3ccccc3)cc2)cc1 | inconclusive [inhibitor, partial curve, poor fit]
COc1ccc(/C=N/NC(=O)c2ccncc2)cc1CSc1nc2ccccc2s1 | inconclusive [inhibitor, single point]
Cc1cc(C)c(C)c(OCC(O)CN2CCN(c3ccccn3)CC2)c1 (stereo not given) | inconclusive [inhibitor, partial curve, poor fit]
FC(F)(F)C(F)(F)c1nc2nc(Cl)c(Cl)nc2[nH]1 | inconclusive [inhibitor, single point]
COc1c(C(=O)Nc2ccc(Br)cn2)ccc2ccccc12 | inactive
Cc1nnc(N2CCC(C(=O)Nc3ccc(F)cc3)CC2)c2nn(-c3ccc(Cl)cc3)c(C)c12 | inconclusive [inhibitor, partial curve, poor fit]
COc1ccc2c(c1)c(=Cc1ccc(N(C)C)cc1)c1cc(-c3ccccc3)[n+](C)n12 | inconclusive [inhibitor, partial curve, poor fit]
CC(C)N(Cc1ccccc1)S(=O)(=O)c1cccs1 | inconclusive [inhibitor, partial curve]
C=CS(=O)(=O)N(Cc1ccccc1Br)[C@H](CO)CC(C)C | inconclusive [inhibitor, single point]
O=C(C[n+]1ccccc1)Nc1ccccc1Br | inactive
CC(=O)Nc1ccc(S(=O)(=O)NCCC(=O)N2CCN(C(c3ccccc3)c3ccccc3)CC2)cc1 | inconclusive [inhibitor, single point]
Cc1cc([N+](=O)[O-])ccc1NC(=O)C(C)NC1CCCCC1 (stereo not given) | inconclusive [inhibitor, single point]
COc1ccc2c(=O)c3ccccc3oc2c1 | inactive
O=C(CN1C(=O)S/C(=C\c2ccc(O)cc2)C1=O)c1ccccc1 | inconclusive [inhibitor, full curve, poor fit]
Cc1ccc(F)cc1C(=O)N1CCCCC1c1cc(C(=O)NCc2ccccc2)no1 (stereo not given) | inactive
Cc1ccc(C2c3[nH]c4ccccc4c3CCN2C(=O)c2ccccc2Br)cc1 (stereo not given) | inconclusive [inhibitor, partial curve, poor fit]
C=C(C)C1CC=C(C)/C(=N\NC(=O)CNc2ccccc2OC)C1 (stereo not given) | inconclusive [inhibitor, partial curve, poor fit]
CCCCc1ccc(S(=O)(=O)N2CCC3(CC2)OCCO3)cc1 | inconclusive [inhibitor, single point]
COc1ccc(COC(=O)C2CCN(C(=O)c3ccc(Cl)cc3)CC2)cc1F | inconclusive [inhibitor, partial curve, poor fit]
CC(C)C(=O)Nc1cccc(C(=O)Nc2ccc3c(c2)OCO3)c1 | inconclusive [inhibitor, single point]
